Data reported in PubChem BioAssay (NCATS).
Several values for one entry are separate records, joined by “and”; a condition that tells them apart may be missing. Identical values can stand only once. The shares of active, inactive and inconclusive entries below differ from those in the screen. Potencies beside an inconclusive call are fits to weak or partial responses and may not hold up. Activity calls are given as the source filed them. The call rests on the fitted dose curve; in most records, active means well fitted cell-killing curve with a large enough effect; inconclusive means small, poorly fitted or top-dose-only effect, or effect the other way; inactive means flat fitted curve, though single readings scatter.

Assay: qHTS assay for cell viability of the p53RE-bla HCT-116 cell line (AID 743292); further: nearly all actives have a fitted effect of over 55% in size
Settings: p53RE-bla HCT-116 viability, ATP luminescence, 16 h
Text: U.S. Tox21 Program National Center for Advancing Translational Sciences [NCATS] NIH Chemical Genomics Center [NCGC] U.S. Environmental Protection Agency [EPA] National Institutes of Environmental Health Sciences [NIEHS] National Toxicology Program [NTP] U.S. Food and Drug Administration [FDA] Tox21 Assay Overview: The CellTiter-Glo Luminescent Cell Viability Assay (Promega, Madison, WI) is a homogeneous method to determine the number of viable cells in culture based on quantitation of the ATP present, which signals the presence of metabolically active cells. This cell viability assay was used to screen environmental chemicals in the CellSensor p53RE-bla HCT-116 cell line (Invitrogen).
Tox21 Assay Protocol Summary: Cell viability after compound treatment was measured using a luciferase-coupled ATP quantitation assay (CellTiter-Glo viability assay, Promega, Madison, WI) in CellSensor p53RE-bla HCT-116 cell line (Invitrogen). Total intracellular ATP content corresponds to the number of metabolically competent cells after compound treatment. The cells were dispensed at 4,000 cells/5 uL/well in 1,536-well white/solid bottom assay plates using a Flying Reagent Dispenser (Aurora Discovery, San Diego, CA). The cells were incubated for 5 h at 37 C, followed by the addition of 23 nL of compounds dissolved in DMSO, positive controls or DMSO only using a pintool work station (Kalypsys, San Diego, CA). The assay plates were incubated for 16 h at 37 C, followed by the addition of 5 uL/well of CellTiter-Glo reagent. After 30 min incubation at room temperature, the luminescence intensity of the plates was measured using a ViewLux plate reader (PerkinElmer, Shelton, CT).
Potency means the concentration at half of the fitted maximal effect; tags describe the fitted curve by direction and shape.

Row | Structure (SMILES) | Potency
1 | Oc1cc(Cl)ccc1Oc1ccc(Cl)cc1Cl | inconclusive: 50.1 µM [cytotoxic, single point]
2 | O=C(CCl)c1ccc(Cl)cc1Cl | inconclusive: 50.1 µM [cytotoxic, partial curve, poor fit]
3 | C[C@]12C/C(=C/O)C(=O)C[C@@H]1CC[C@@H]1[C@@H]2CC[C@@]2(C)[C@H]1CC[C@]2(C)O | inconclusive: 50.1 µM [cytotoxic, single point]
4 | Clc1ccc(COC(Cn2ccnc2)c2ccc(Cl)cc2Cl)cc1 (stereo not given) | inconclusive: 70.8 µM [cytotoxic, single point]
5 | O=C1C2CC=CCC2C(=O)N1SC(Cl)(Cl)Cl (stereo not given) | inconclusive: 31.6 µM [cytotoxic, single point]
6 | CCCCCCCCCCCCCCCC[N+](C)(C)C | inconclusive: 70.8 µM [cytotoxic, single point]
7 | C[C@H]1O[C@@H](O[C@H]2[C@@H](O)C[C@H](O[C@H]3[C@@H](O)C[C@H](O[C@H]4CC[C@@]5(C)[C@H](CC[C@@H]6[C@@H]5CC[C@]5(C)[C@@H](C7=CC(=O)OC7)CC[C@]65O)C4)O[C@@H]3C)O[C@@H]2C)C[C@H](O)[C@@H]1O | inconclusive: 0.0501 µM [cytotoxic, full curve]
8 | C[C@@H]1O[C@@H](O[C@H]2C[C@@H](O)[C@]3(CO)[C@H]4[C@H](O)C[C@]5(C)[C@@H](C6=CC(=O)OC6)CC[C@]5(O)[C@@H]4CC[C@]3(O)C2)[C@H](O)[C@H](O)[C@H]1O | inconclusive: 0.1 µM [cytotoxic, full curve]
9 | O=c1[nH]c2ccccc2n1C1CCN(CCCC(c2ccc(F)cc2)c2ccc(F)cc2)CC1 | inconclusive: 44.7 µM [cytotoxic, partial curve, poor fit]
10 | O=c1oc2ccccc2c(O)c1C(CC(O)c1ccc(-c2ccc(Br)cc2)cc1)c1ccccc1 (stereo not given) | active: 31.6 µM
11 | C[CH2][Hg][S]c1ccccc1C(=O)O | active: 15.8 µM
12 | Clc1ccc(C(c2ccc(Cl)cc2)C(Cl)(Cl)Cl)cc1 | inconclusive: 44.7 µM [cytotoxic, partial curve]
13 | [O]=[Cr](=[O])([OH])[O][Cr](=[O])(=[O])[OH] | active: 31.6 µM and active: 25.1 µM and active: 22.4 µM
14 | CC(=O)[O][Hg][c]1ccccc1 | active: 8.91 µM and active: 10 µM
15 | CCCCCC[C@H]1C(=O)O[C@H](C)[C@H](NC(=O)c2cccc(NC=O)c2O)C(=O)O[C@@H](C)[C@@H]1OC(=O)CC(C)C | inconclusive: 50.1 µM [cytotoxic, partial curve, poor fit]
